Measurements from the supplement of paper PMC10441789.
The list shows a part of the results. Antibody binding of pooled human sera (four to six donors per pool; dilution not stated) to peptides of the Trypanosoma cruzi antigen TSSA on microarrays. Quantile-normalised fluorescence in arbitrary units, mean of duplicate arrays; higher = more binding. No active / inactive call. The uninfected pools are read here as the healthy donors of the same country. The strongest signals lie near the top of the scale (about 60,000).

Experiments:
Assay in all cases: antibody binding signal (normalised fluorescence) (arbitrary fluorescence units); higher = stronger serum antibody binding to peptide
[1] = test system: pooled sera of chronic Chagas disease patients, Bolivia
Method: (§1)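 Microarray of 15-residue peptides over residues 30-55 of Trypanosoma cruzi TSSAII, each with 1 to 10 substitutions at naturally variable positions, probed with one serum pool per country.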

[2] = test system: pooled sera of chronic Chagas disease patients, Brazil
Method: as §1

[3] = test system: pooled sera of chronic Chagas disease patients, Colombia
Method: as §1

[4] = test system: pooled sera of chronic Chagas disease patients, Mexico
Method: as §1

[5] = test system: pooled sera of chronic Chagas disease patients, USA
Method: as §1

[6] = test system: pooled sera of uninfected people, Argentina
Method: as §1

[7] = test system: pooled sera of uninfected people, Bolivia
Method: as §1

[8] = test system: pooled sera of uninfected people, Brazil
Method: as §1

[9] = test system: pooled sera of uninfected people, Colombia
Method: as §1

[10] = test system: pooled sera of uninfected people, Mexico
Method: as §1

[11] = test system: pooled sera of uninfected people, USA
Method: as §1

Sequence	antibody binding signal [1]	antibody binding signal [2]	antibody binding signal [3]	antibody binding signal [4]	antibody binding signal [5]	antibody binding signal [6]	antibody binding signal [7]	antibody binding signal [8]	antibody binding signal [9]	antibody binding signal [10]	antibody binding signal [11]
SGTEKKTAAGGAPSQ	843	1050	9940	1390	1600	179	414	166	182	176	127
KDKKPATGGAPSQSG	263	321	285	360	857	217	234	134	97.5	94	98.9
ENKPATGGTPSPPGA	3410	2980	285	714	537	300	574	418	360	158	224
PPSGKDKKPAAGGAP	847	725	1690	35600	1390	217	564	131	258	80.2	144
TENKAAAGEAPSQPG	27100	45700	289	235	14200	83.5	150	179	92.7	87.3	124
DKKTATGGTPSPSGA	470	510	4070	515	1640	302	113	309	676	214	153
TPPSGTDNKAAAGEA	42400	48400	2100	11700	11100	644	512	1100	161	174	200
GKEKKTAAGEAPSQP	3040	23300	1880	1810	5740	233	123	103	440	85.1	537
KDNKAAAGEAPSQPG	6750	34800	212	186	12100	387	1410	152	169	75	115
GTEKKAATGEAPSPP	23500	29900	1720	2510	25100	583	816	180	608	145	197
TDNKTAAGEAPSQSG	16400	10700	126	256	7120	119	392	222	158	190	124
KENKAATGGTPSQSG	318	314	233	283	206	193	102	160	107	98.3	146
DKKAAAGGTPSPPGA	168	190	4940	355	1520	142	92.2	1750	164	96.3	146
GTDKKPAAGGAPSQS	430	870	7000	610	1330	164	224	200	141	356	159
EKKAATGEAPSQSGA	21000	32000	300	678	23800	815	730	134	965	287	969
PPSGKDNKAATGETP	4710	5230	453	7850	11300	354	838	232	310	131	185
SSTPPSGKDNKPATG	2870	28300	601	20700	13100	364	1650	184	195	266	241
TPPSGTENKAAAGGT	48300	52400	588	6770	20000	2160	608	2030	891	270	557
PPSGTEKKAATGGTP	1010	12400	1060	2840	3610	972	525	650	1030	123	226
GTDKKPATGGTPSQP	401	4290	6630	825	872	336	466	679	186	564	157
PPSGTDKKPAAGEAP	25200	42600	5850	45900	13700	534	541	634	652	4920	396
SGKDNKPATGETPSP	32000	35300	441	390	25600	531	835	268	285	1740	577
PPSGKDKKPATGGTP	364	642	805	40000	1360	256	285	254	236	155	173
GKENKTATGGAPSPS	296	9040	4740	5210	14400	430	109	112	114	126	109
KEKKTATGEAPSPSG	6780	5140	237	251	13800	163	98	110	85.9	92.5	126
GKDNKPATGGTPSQP	280	10400	855	988	928	272	702	173	197	267	96.8
TSSTPPSGTEKKTAA	3160	30400	847	11200	4130	1960	296	126	143	93.4	331

Sequence	antibody binding signal [1]	antibody binding signal [2]	antibody binding signal [3]	antibody binding signal [4]	antibody binding signal [5]	antibody binding signal [6]	antibody binding signal [7]	antibody binding signal [8]	antibody binding signal [9]	antibody binding signal [10]	antibody binding signal [11]
SGKDNKPATGGAPSQ	4770	12000	1250	1200	2830	517	1180	145	458	227	167
TPPSGKEKKTATGGT	620	647	686	20300	1670	349	291	427	151	130	155
EKKAAAGGTPSQPGA	206	1200	5700	397	1840	266	630	1570	171	290	758
GTEKKAATGEAPSQS	26800	30700	1020	1610	26300	449	759	160	615	189	157
SGKDNKTAAGGTPSQ	305	928	5700	1150	3390	231	130	286	541	480	156
TPPSGTDKKPAAGEA	35900	45200	10800	38700	6230	874	347	529	441	4860	374
GKDNKAAAGEAPSPP	669	14300	6620	6490	10800	204	445	120	173	84.2	115
KDNKTATGETPSQPG	887	32300	2250	247	6970	494	549	321	355	204	247
SGKDKKPATGGAPSP	484	781	945	871	1630	259	321	105	248	111	99.9
KDNKPATGEAPSPPG	49000	49300	315	190	44700	1040	777	394	280	405	146
TDKKTAAGEAPSPPG	346	879	419	328	8270	160	101	325	1330	145	93.5
TPPSGKDNKAAAGET	1720	1660	218	18800	4510	367	717	260	322	184	112
PPSGTDNKTATGGTP	35700	47000	722	1970	4900	614	660	1650	391	329	264
DNKTATGETPSQSGA	1790	7950	384	171	6950	96.3	218	280	140	155	140
EKKAAAGETPSPSGA	331	750	445	324	4190	200	1160	114	145	277	1960
GTDKKPATGETPSQS	27000	34600	7490	550	22700	240	444	245	262	2050	186
ENKPATGGAPSQSGA	17900	8250	388	1000	4040	457	1260	336	184	259	300
GKEKKTATGEAPSPS	4150	5040	2770	3230	15100	168	84.5	91.1	73.6	73	95
KDNKTATGEAPSPSG	13500	14600	2220	220	22200	511	220	189	303	87.1	192
GKENKAAAGEAPSPS	2250	22200	21000	17000	25400	630	132	113	162	114	130
ENKPAAGGAPSPPGA	2640	4220	1660	350	1220	318	331	246	193	149	249
TDNKTAAGGAPSQSG	348	633	4740	481	306	344	312	603	203	554	206
TDKKAATGGTPSQPG	659	966	2150	669	1080	442	118	905	1100	642	141
PSGTENKAAAGETPS	27800	38000	2530	2670	9750	1020	551	250	443	372	279
ENKTATGEAPSQPGA	39400	42100	204	339	22100	191	124	284	211	257	142
GKDKKTATGEAPSPS	2800	3230	832	995	14000	198	72.8	99.4	90.1	73.6	79
GKEKKAATGEAPSPS	3460	16700	4210	5360	19100	338	81.6	87	225	76.2	92.4
